Laboratory results published in the supplement of paper PMC3334620.
Whole data set: some 33,000 sequences, median “E-score (-0.5 to 0.5)” near -0.054, cut for the highest 2% near 0.35. This is one part of the list.

Target: T1, Stb5 (UniProt P38699)
T1 sequence: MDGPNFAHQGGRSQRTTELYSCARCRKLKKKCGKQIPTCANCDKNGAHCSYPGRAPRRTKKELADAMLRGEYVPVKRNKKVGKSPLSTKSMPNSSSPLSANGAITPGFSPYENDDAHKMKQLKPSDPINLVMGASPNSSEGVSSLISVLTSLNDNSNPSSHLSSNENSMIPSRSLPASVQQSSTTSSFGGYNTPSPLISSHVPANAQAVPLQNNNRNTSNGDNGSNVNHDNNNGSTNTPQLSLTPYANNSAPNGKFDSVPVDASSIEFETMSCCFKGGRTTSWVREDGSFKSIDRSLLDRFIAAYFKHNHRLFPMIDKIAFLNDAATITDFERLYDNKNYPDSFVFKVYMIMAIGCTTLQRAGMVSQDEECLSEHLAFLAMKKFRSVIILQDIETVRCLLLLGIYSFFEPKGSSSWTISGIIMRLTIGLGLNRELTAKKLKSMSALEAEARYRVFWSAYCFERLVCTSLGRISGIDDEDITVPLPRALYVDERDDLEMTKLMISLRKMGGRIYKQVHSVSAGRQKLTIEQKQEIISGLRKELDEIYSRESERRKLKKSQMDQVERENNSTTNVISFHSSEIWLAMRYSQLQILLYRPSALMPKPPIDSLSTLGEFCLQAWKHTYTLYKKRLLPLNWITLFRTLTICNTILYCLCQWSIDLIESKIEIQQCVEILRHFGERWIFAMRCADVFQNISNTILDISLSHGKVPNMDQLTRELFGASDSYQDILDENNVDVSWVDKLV
Assay: PBM E-score (8-mer binding enrichment) (E-score (-0.5 to 0.5)); higher = stronger / more preferred TF binding; most listed sequences are background and not binding sites
Conditions: protein concentration: 200 nM; construct: GST-full length
Procedure, shortened: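 E-scores (a modified Wilcoxon-Mann-Whitney statistic) were assigned by the Universal PBM Analysis Suite to every ungapped eight-base word pooled with its reverse complement. The input came from universal all-10-mer Agilent arrays made double-stranded by primer extension and probed with GST-tagged yeast transcription factors at about 100-200 nM. Fluorescent anti-GST detected bound protein, and masliner normalised the scans.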

Sequence	PBM E-score
CGACCTAG	0.0545
AATACACC	0.314
CGGATTAC	-0.0316
CACGCCTA	-0.169
CCTAGAGC	0.0866
GGCTTTCA	-0.0306
CGTTGGAG	0.0782
GTTTCACA	-0.106
GACTGCCA	-0.106
GCCGCCCA	0.19
ACGTGCCC	-0.0848
ACGCACAA	-0.168
AGTCAAAG	-0.171
AATGAAGG	-0.0303
CCTCGATA	0.0491
AACAAACG	0.0203
GCTTCCTA	-0.0337
AGTCTGGA	0.00288
TCTCTACA	-0.177
GCGGTCCC	0.289
ATGAAAGC	-0.0893
AGGCACGA	-0.0317

Sequence	PBM E-score
CAGAGAAC	-0.138
TTAGGGAA	-0.144
GCGCACAC	-0.108
CGCAACGC	0.0842
ACAGTTTA	-0.158
GGGGATAC	0.27
CAAGTCAC	-0.0834
GAGCACCC	0.0316
CAGATTTC	-0.152
AGAGCGTA	-0.0201
CTTGTGCA	-0.134
ACCCTACC	-0.177
TACGATGA	-0.18
CCTGTAGC	0.102
GCCTTAAC	-0.0803
CTCTGGGC	-0.203
AGGGGTAA	-0.249
CGAGGCGC	0.108
AACACCGG	0.474
AACCGGGG	0.29
GACGCGCA	-0.043
AATGACGC	-0.0314

Sequence	PBM E-score
ATCGAGAG	-0.198
AGTGAGCA	-0.241
CGAACCGC	0.0972
TATCATAA	-0.101
CGACGCGC	0.182
GACTAGTA	0.0372
ACCCCCCG	0.204
ACTATTTC	0.0448
ACAAGCTC	-0.0867
CGAAGGAC	0.0821
GGCCAGCC	-0.151
CACTGTCG	-0.0737
AATCAGAA	-0.0204
GGACTGAC	0.0533
AATTTGAG	-0.0983
ATCTCCAT	0.0527
ATTTATTA	0.0961
TTTGAAAA	-0.105
TGGACAAA	-0.00634
CCACTGAC	-0.182
CGTTGCAC	0.0549
GATATCAC	0.0605

Sequence	PBM E-score
CGCACCGA	0.272
ACAGTTCG	0.0995
AATTCGAC	-0.268
CCGTTTCG	0.202
ACGCGTCG	0.115
CGATTTTC	0.115
CGCGTGTA	-0.0544
TCTGTACA	0.00856
CCTAGTCC	0.0326
AGATCTGA	-0.24
AAGGCGGG	0.201
CTCAGCCC	-0.0597
GTCGCTCA	-0.256
TCCATCCA	-0.254
TCCTTCAA	-0.142
ACGATGTG	-0.157
CATTCTCC	-0.0874
AGCTACGA	-0.16
GATTGCAC	0.0164
CGAATTGA	-0.12
